Results as given in patent US20240262848A1, “HETEROCYCLIC COMPOUNDS, COMPOSITIONS THEREOF, AND METHODS OF TREATMENT THEREWITH” (BeiGene, Ltd., priority 2022, published 2024).

Molecular target: GST-tagged GDP-loaded WT KRAS (amino acids 1-169) (Homo sapiens, UniProt P01116)
Experiment: KRAS WT probe displacement assay (run with the KRAS G12V assay, TR-FRET)
Type: binding
Conditions: Table 4; WT KRAS 3 nM, biotinylated probe 1 60 nM

SMILES	IC50 [nM]
CN1c2nc(OC[C@@]34CCCN3C[C@H](F)C4)nc3c(F)c(-c4cc(N)cc(Cl)c4C(F)(F)F)nc(c23)O[C@H]2CCCC[C@@H]21 [Example 46, 3-chloro-5-((7aS,11aS)-4-fluoro-2-(((2R,7aS)-2-fluorotetrahydro-1H-pyrrolizin-7a(5H)-yl)methoxy)-12-methyl-7a, 8,10,11,11a, 12-hexahydro-9H-7-oxa-1,3,6,12-tetraazapleiaden-5-yl)-4-(trifluoromethyl)aniline]	0.58
CN1c2nc(OC[C@@]34CCCN3C[C@H](F)C4)nc3c(F)c(-c4cc(N)cc(Cl)c4C(F)(F)F)nc(c23)OCC12CC2 [Example 29, 3-chloro-5-(4-fluoro-2-(((2R,7aS)-2-fluorotetrahydro-1H-pyrrolizin-7a(5H)-yl)methoxy)-10-methyl-8H, 10H-7-oxa-1,3,6,10-tetraazaspiro[cyclohepta[de]naphthalene-9,1′-cyclopropan]-1(10a), 2,3a, 3 al(6a), 5-pentaen-5-yl)-4-(trifluoromethyl)aniline]	1.7
CC1CN(C)c2nc(OC[C@@]34CCCN3C[C@H](F)C4)nc3c(F)c(-c4cc(N)cc(Cl)c4C(F)(F)F)nc(c23)O1 (stereo partly drawn) [Example 12, 3-chloro-5-(4-fluoro-2-(((2R,7aS)-2-fluorotetrahydro-1H-pyrrolizin-7a(5H)-yl)methoxy)-8,10-dimethyl-9,10-dihydro-8H-7-oxa-1,3,6,10-tetraazacyclohepta[de]naphthalen-5-yl)-4-(trifluoromethyl)aniline]	4.2
C#Cc1c(F)ccc2cc(O)cc(-c3nc4c5c(nc(OC[C@@]67CCCN6C[C@H](F)C7)nc5c3F)N(C3CC3)CCCO4)c12 [Example 5, 4-(11-cyclopropyl-4-fluoro-2-(((2R,7aS)-2-fluorotetrahydro-1H-pyrrolizin-7a(5H)-yl)methoxy)-8,9,10,11-tetrahydro-7-oxa-1,3,6,11-tetraazacycloocta[de]naphthalen-5-yl)-5-ethynyl-6-fluoronaphthalen-2-ol]	1.3
CCN1c2nc(OC[C@@]34CCCN3C[C@H](F)C4)nc3c(F)c(-c4cc(N)cc(C)c4C(F)(F)F)nc(c23)OCCC12COC2 [Example 56, 3-(11-ethyl-4-fluoro-2-(((2R,7aS)-2-fluorotetrahydro-1H-pyrrolizin-7a(5H)-yl)methoxy)-8,9-dihydro-11H-7-oxa-1,3,6,11-tetraazaspiro[cycloocta[de]naphthalene-10,3′-oxetan]-1(11a), 2,3a, 3a^1(6a),5-pentaen-5-yl)-5-methyl-4-(trifluoromethyl)aniline]	2
CC1COc2nc(-c3cc(N)cc(Cl)c3C(F)(F)F)c(F)c3nc(OC[C@@]45CCCN4C[C@H](F)C5)nc(c23)N1C (stereo partly drawn) [Example 22, 3-chloro-5-(4-fluoro-2-(((2R,7aS)-2-fluorotetrahydro-1H-pyrrolizin-7a(5H)-yl)methoxy)-9,10-dimethyl-9,10-dihydro-8H-7-oxa-1,3,6,10-tetraazacyclohepta[de]naphthalen-5-yl)-4-(trifluoromethyl)aniline]	12
C[C@@H]1CCOc2c(Cl)c(-c3ccc(F)c4sc(N)c(C#N)c34)c(F)c3nc(OC[C@@]45CCCN4C[C@H](F)C5)nc(c23)N1C [Example 19, 2-amino-4-((R)-9-chloro-11-fluoro-2-(((2R,7aS)-2-fluorotetrahydro-1H-pyrrolizin-7a(5H)-yl)methoxy)-4,5-dimethyl-4,5,6,7-tetrahydro-[1,5]oxazocino[4,3,2-de]quinazolin-10-yl)-7-fluorobenzo[b]thiophene-3-carbonitrile]	0.66
CN1c2nc(OC[C@@]34CCCN3C[C@H](F)C4)nc3c(F)c(-c4cc(N)cc(Cl)c4C(F)(F)F)nc(c23)OC[C@H]2CCC[C@H]21 [Example 52, 3-chloro-5-((8aS,11aR)-4-fluoro-2-(((2R,7aS)-2-fluorotetrahydro-1H-pyrrolizin-7a(5H)-yl)methoxy)-12-methyl-8a, 9,10,11,11a, 12-hexahydro-8H-7-oxa-1,3,6,12-tetraazacyclopenta[5,6]cycloocta[1,2,3-de]naphthalen-5-yl)-4-(trifluoromethyl)aniline]	8.1
CN1c2nc(OC[C@@]34CCCN3C[C@H](F)C4)nc3c(F)c(-c4cc(N)cc(Cl)c4C(F)(F)F)nc(c23)O[C@@H]2CCC[C@H](O)[C@H]21 (relative stereo) [Example 47, (7aR*,11S*,11aR*)-5-(5-amino-3-chloro-2-(trifluoromethyl)phenyl)-4-fluoro-2-(((2R,7aS)-2-fluorotetrahydro-1H-pyrrolizin-7a(5H)-yl)methoxy)-12-methyl-7a, 8,10,11,11a, 12-hexahydro-9H-7-oxa-1,3,6,12-tetraazapleiaden-11-ol]	0.84
CC1CCOc2nc(-c3cc(N)cc(Cl)c3C(F)(F)F)c(F)c3nc(OC[C@@]45CCCN4C[C@H](F)C5)nc(c23)N1C (stereo partly drawn) [Example 6, 3-chloro-5-(4-fluoro-2-(((2R,7aS)-2-fluorotetrahydro-1H-pyrrolizin-7a(5H)-yl)methoxy)-10,11-dimethyl-8,9,10,11-tetrahydro-7-oxa-1,3,6,11-tetraazacycloocta[de]naphthalen-5-yl)-4-(trifluoromethyl)aniline]	5
C#Cc1c(F)ccc2cc(O)cc(-c3nc4c5c(nc(OC[C@@]67CCCN6C[C@H](F)C7)nc5c3F)N(C3CCC3)CCCO4)c12 [Example 13, 4-(11-cyclobutyl-4-fluoro-2-(((2R,7aS)-2-fluorotetrahydro-1H-pyrrolizin-7a(5H)-yl)methoxy)-8,9,10,11-tetrahydro-7-oxa-1,3,6,11-tetraazacycloocta[de]naphthalen-5-yl)-5-ethynyl-6-fluoronaphthalen-2-ol]	1.5
CN1c2nc(OC[C@@]34CCCN3C[C@H](F)C4)nc3c(F)c(-c4ccc(F)c5sc(N)c(C#N)c45)c(Cl)c(c23)OCCC12COC2 [Example 28, 2-amino-4-(9′-chloro-11′-fluoro-2′-(((2R,7aS)-2-fluorotetrahydro-1H-pyrrolizin-7a(5H)-yl)methoxy)-4′-methyl-6′,7′-dihydro-4′H-spiro[oxetane-3,5′-[1,5]oxazocino[4,3,2-de]quinazolin]-10′-yl)-7-fluorobenzo[b]thiophene-3-carbonitrile]	3.2
CN1c2nc(OC[C@@]34CCCN3C[C@H](F)C4)nc3c(F)c(-c4cc(N)cc(Cl)c4C(F)(F)F)nc(c23)OCCC12CCC2 [Example 32, 3-chloro-5-(4′-fluoro-2′-(((2R,7aS)-2-fluorotetrahydro-1H-pyrrolizin-7a(5H)-yl)methoxy)-11′-methyl-8′,9′-dihydro-11′H-7′-oxa-1′,3′,6′,11′-tetraazaspiro[cyclobutane-1,10′-cycloocta[de]naphthalen]-1′(11a′), 2′,3a′, 3 al′(6a′), 5′-pentaen-5′-yl)-4-(trifluoromethyl)aniline]	11
CN1c2nc(OC[C@@]34CCCN3C[C@H](F)C4)nc3c(F)c(-c4cc(N)cc(Cl)c4C(F)(F)F)nc(c23)OCCC12CC(O)C2 (stereo partly drawn) [Example 33, 5′-(5-amino-3-chloro-2-(trifluoromethyl)phenyl)-4′-fluoro-2′-(((2R,7aS)-2-fluorotetrahydro-1H-pyrrolizin-7a(5H)-yl)methoxy)-11′-methyl-8′,9′-dihydro-11′H-7′-oxa-1′,3′,6′,11′-tetraazaspiro[cyclobutane-1,10′-cycloocta[de]naphthalen]-1′(11a′), 2′0.3a′, 3 al′(6a′), 5′-pentaen-3-ol]	0.53
CC1CCN(C)c2nc(OC[C@@]34CCCN3C[C@H](F)C4)nc3c(F)c(-c4cc(N)cc(Cl)c4C(F)(F)F)nc(c23)O1 (stereo partly drawn) [Example 14, 3-chloro-5-(4-fluoro-2-(((2R,7aS)-2-fluorotetrahydro-1H-pyrrolizin-7a(5H)-yl)methoxy)-8,11-dimethyl-8,9,10,11-tetrahydro-7-oxa-1,3,6,11-tetraazacycloocta[de]naphthalen-5-yl)-4-(trifluoromethyl)aniline]	30
CCc1c(F)ccc2cc(O)cc(-c3nc4c5c(nc(OC[C@@]67CCCN6C[C@H](F)C7)nc5c3F)N(C)C(C)CCO4)c12 (stereo partly drawn) [Example 16, 5-ethyl-6-fluoro-4-(4-fluoro-2-(((2R,7aS)-2-fluorotetrahydro-1H-pyrrolizin-7a(5H)-yl)methoxy)-10,11-dimethyl-8,9,10,11-tetrahydro-7-oxa-1,3,6,11-tetraazacycloocta[de]naphthalen-5-yl)naphthalen-2-ol]	2.6
CN1c2nc(OC[C@@]34CCCN3C[C@H](F)C4)nc3c(F)c(-c4cc(N)c(F)c(Cl)c4C(F)(F)F)nc(c23)O[C@H]2COCC[C@@H]21 [Example 66, 3-chloro-2-fluoro-5-((7aR,11aS)-4-fluoro-2-(((2R,7aS)-2-fluorotetrahydro-1H-pyrrolizin-7a(5H)-yl)methoxy)-12-methyl-7a, 8,10,11,11a, 12-hexahydro-7,9-dioxa-1,3,6,12-tetraazapleiaden-5-yl)-4-(trifluoromethyl)aniline]	0.58
CC1COc2nc(-c3cc(N)cc(Cl)c3C(F)(F)F)c(F)c3nc(OC[C@@]45CCCN4C[C@H](F)C5)nc(c23)N(C)C1 (stereo partly drawn) [Example 15, 3-chloro-5-(4-fluoro-2-(((2R,7aS)-2-fluorotetrahydro-1H-pyrrolizin-7a(5H)-yl)methoxy)-9,11-dimethyl-8,9,10,11-tetrahydro-7-oxa-1,3,6,11 tetraazacycloocta[de]naphthalen-5-yl)-4-(trifluoromethyl)aniline]	13
CCN1c2nc(OC[C@@]34CCCN3C[C@H](F)C4)nc3c(F)c(-c4cc(N)cc(C)c4C(F)(F)F)nc(c23)O[C@H]2COCC[C@@H]21 [Example 57, 3-((7aR,11aS)-12-ethyl-4-fluoro-2-(((2R,7aS)-2-fluorotetrahydro-1H-pyrrolizin-7a(5H)-yl)methoxy)-7a, 8,10,11,11a, 12-hexahydro-7,9-dioxa-1,3,6,12-tetraazapleiaden-5-yl)-5-methyl-4-(trifluoromethyl)aniline]	2.4
CN1c2nc(OC[C@@]34CCCN3C[C@H](F)C4)nc3c(F)c(-c4ccc(F)c5sc(N)c(C#N)c45)c(Cl)c(c23)OCC12COC2 [Example 18, 2-amino-4-(8′-chloro-10′-fluoro-2′-(((2R,7aS)-2-fluorotetrahydro-1H-pyrrolizin-7a(5H)-yl)methoxy)-4′-methyl-4′H, 6′H-spiro[oxetane-3,5′-[1,4]oxazepino[5,6,7-de]quinazolin]-9′-yl)-7-fluorobenzo[b]thiophene-3-carbonitrile]	1.3
